The values below come from the supplement of paper PMC11880418.

Counter-ions that a name gives are not always drawn. Some of the results follow. The data scatter; read single values as rough. Residues, ends and D or L forms follow the SMILES beside them.
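Note: High-content imaging of ALDEFLUOR-stained cells with Hoechst-labelled nuclei in 384-well plates, triplicate wells, scored as Z-score against 0.1% DMSO vehicle, negative meaning fewer ALDHbr cells.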

For the first assay, the system named is MKN45. As to the kind of experiment: ALDHbr (CSC) cell proportion score relative to DMSO vehicle (ratio to DMSO); breast (SUM159) / gastric (MKN45) / pancreatic (PANC1) / colon cancer lines; ALDHbr cells have high ALDH activity and are rich in cancer stem cells (CSC); higher = more CSC (ALDHbr) cells remaining. Particulars: 10 µM; 72 h.
Turning to `CC(=O)[C@@]1(O)CC[C@H]2[C@@H]3C[C@H](C)C4=CC(=O)C=C[C@]4(C)[C@@]3(F)[C@@H](O)C[C@@]21C` [Fluorometholone], the ALDHbr stood at 0.836.

Regarding `CC(=O)N(O)CCCCCNC(=O)CCC(=O)N(O)CCCCCNC(=O)CCC(=O)N(O)CCCCCN` [Deferoxamine mesylate], the ALDHbr was 0.361.

For `COc1ccc2c(c1)C(=O)N(CCc1ccc(S(=O)(=O)NC(=O)NC3CCCCC3)cc1)C(=O)C2(C)C` [Gliquidone], the ALDHbr is 1.

On to `CCOC(=O)C1=C(C)NC(C)=C(C(=O)OCC)C1c1ccccc1/C=C/C(=O)OC(C)(C)C` [Lacidipine], for which the ALDHbr amounted to 0.272.

Take `CCCCC[C@H](O)/C=C/[C@H]1[C@H](O)CC(=O)[C@@H]1CCCCCCC(=O)O` [Alprostadil]: the ALDHbr was 0.862.

`NC[C@@H]1O[C@@H](O[C@H]2[C@H](O)[C@@H](O[C@H]3O[C@H](CO)[C@@H](O)[C@H](N)[C@H]3O)[C@H](N)C[C@@H]2N)[C@@H](O)[C@H](O)[C@H]1O` [Kanamycin A sulfate]: the ALDHbr came out at 0.973.

Turning to `O=C1CC[C@@H](C(=O)N2CSC[C@H]2C(=O)O)N1` [Pidotimod] (HELM PEPTIDE1{[Glp].[O=C(O)[C@@H]1CSCN1[*:1]]}$$$$V2.0), the ALDHbr came to 1.08.

With `CCCCC1C(=O)N(c2ccccc2)N(c2ccc(O)cc2)C1=O` (centres undefined) [Oxyphenbutazone], the ALDHbr worked out at 1.1.

For `CN(C)CCN1C(=O)c2ccccc2N(C)c2ccccc21` [Dibenzepine hydrochloride], the ALDHbr came out at 0.99.

The next assay relates to PANC1. The description is as above. Particulars: 10 µM; 72 h.
Regarding `CC[C@H]1OC(=O)[C@H](C)[C@@H](O[C@H]2C[C@@](C)(OC)[C@@H](O)[C@H](C)O2)[C@H](C)[C@@H](O[C@@H]2O[C@H](C)C[C@H](N(C)C)[C@H]2O)[C@](C)(OC)C[C@@H](C)C(=O)[C@H](C)[C@@H](O)[C@]1(C)O` [Clarithromycin], the ALDHbr amounted to 0.981.

With `CC(=O)N[C@@H](CS)C(=O)O` [Acetylcysteine], the ALDHbr came to 0.947.

Take `CO/N=C1\CN(c2nc3c(cc2F)c(=O)c(C(=O)O)cn3C2CC2)CC1CN` (centres undefined) [Gemifloxacin mesylate]: the ALDHbr amounted to 0.748.

Regarding `Cc1c(O)c(=O)n(-c2ccccc2)n1C` [Antipyrine, 4-hydroxy], the ALDHbr came out at 0.904.

Take `O=C1[C@H](CC[C@H](O)c2ccc(F)cc2)[C@@H](c2ccc(O)cc2)N1c1ccc(F)cc1` [Ezetimibe]: the ALDHbr came to 0.673.

Regarding `CC(C)(O/N=C(\C(=O)N[C@@H]1C(=O)N2C(C(=O)[O-])=C(C[n+]3ccccc3)CS[C@H]12)c1csc(N)n1)C(=O)O` [Ceftazidime pentahydrate], the ALDHbr was determined as 0.896.

For `CN(C(=O)C(Cl)Cl)c1ccc(OC(=O)c2ccco2)cc1` [Diloxanide furoate], the ALDHbr was 0.401.

As for `CC(C(=O)O)c1cccc(Oc2ccccc2)c1` (centres undefined) [Fenoprofen calcium salt dihydrate], the ALDHbr was determined as 0.932.

Regarding `CCOC(=O)C1=C(C)NC(C)=C(C(=O)OC)C1c1cccc([N+](=O)[O-])c1` (centres undefined) [Nitrendipine], the ALDHbr turned out to be 0.783.

As to `NS(=O)(=O)c1cc(Cl)c(Cl)c(S(N)(=O)=O)c1` [Dichlorphenamide], the ALDHbr is 0.909.

As to `CO[C@H]1C[C@H](O[C@H]2[C@H](C)[C@@H](O[C@@H]3O[C@H](C)C[C@H](N(C)C)[C@H]3OC(C)=O)[C@@H](C)C[C@@]3(CO3)C(=O)[C@H](C)[C@@H](OC(C)=O)[C@@H](C)[C@@H](C)OC(=O)[C@@H]2C)O[C@@H](C)[C@@H]1OC(C)=O` [Troleandomycin], the ALDHbr turned out to be 0.829.

`CC1Cc2ccccc2N1NC(=O)c1ccc(Cl)c(S(N)(=O)=O)c1` (centres undefined) [Indapamide]: the ALDHbr was 0.931.

Turning to `CCCN(CCC)C(=O)C(CCC(=O)O)NC(=O)c1ccccc1` (centres undefined) [Proglumide], the ALDHbr came to 0.879.

As for `CN[C@H]1CC[C@@H](c2ccc(Cl)c(Cl)c2)c2ccccc21` [Sertraline], the ALDHbr was determined as 1.1.

Consider `CCCCNc1cc(C(=O)O)cc(S(N)(=O)=O)c1Oc1ccccc1` [Bumetanide], for which the ALDHbr came out at 0.765.

In the case of `CC(COc1ccccc1)N(CCCl)Cc1ccccc1` (centres undefined) [Phenoxybenzamine hydrochloride], the ALDHbr is 1.01.

For `Cc1c(N(C)CS(=O)(=O)O)c(=O)n(-c2ccccc2)n1C` [Dipyrone], the ALDHbr was determined as 1.04.

For `COc1ccc2cc(CCC(C)=O)ccc2c1` [Nabumetone], the ALDHbr is 0.89.

As to `O=C1CC2(CCCC2)CC(=O)N1CCCCN1CCN(c2ncccn2)CC1` [Buspirone hydrochloride], the ALDHbr came out at 0.701.

`Cc1c(-c2ccccc2)oc2c(C(=O)OCCN3CCCCC3)cccc2c1=O` [Flavoxate hydrochloride]: the ALDHbr was 0.948.
